Reference: paper PMC7181608
Numbering of substitutions follows the chain as printed. These are yes or no findings as the source states them, for the method shown. In cells and extracts the contact can be indirect. Some entries that bind do so weakly or less than the wild type. For some of these results: Where a sequence is shown, tags or fusion partners need not be part of it.

Amino acid sequences for entries named in this document (tags omitted).
UniProt P12956: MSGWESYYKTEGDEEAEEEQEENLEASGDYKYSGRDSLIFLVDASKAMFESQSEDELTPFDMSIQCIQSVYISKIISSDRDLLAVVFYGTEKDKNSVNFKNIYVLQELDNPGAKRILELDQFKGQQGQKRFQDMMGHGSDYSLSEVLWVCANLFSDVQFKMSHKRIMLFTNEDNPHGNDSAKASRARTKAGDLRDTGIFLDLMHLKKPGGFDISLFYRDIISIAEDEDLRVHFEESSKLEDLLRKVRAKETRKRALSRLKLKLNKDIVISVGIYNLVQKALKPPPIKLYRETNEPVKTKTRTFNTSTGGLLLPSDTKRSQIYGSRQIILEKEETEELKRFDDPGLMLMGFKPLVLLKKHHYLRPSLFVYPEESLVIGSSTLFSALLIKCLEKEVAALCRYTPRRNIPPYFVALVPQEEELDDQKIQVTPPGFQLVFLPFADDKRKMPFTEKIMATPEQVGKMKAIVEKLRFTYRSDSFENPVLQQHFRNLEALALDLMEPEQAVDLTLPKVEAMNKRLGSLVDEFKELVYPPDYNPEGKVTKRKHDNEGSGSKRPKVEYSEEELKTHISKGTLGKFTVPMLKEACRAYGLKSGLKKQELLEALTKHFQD
UniProt P13010: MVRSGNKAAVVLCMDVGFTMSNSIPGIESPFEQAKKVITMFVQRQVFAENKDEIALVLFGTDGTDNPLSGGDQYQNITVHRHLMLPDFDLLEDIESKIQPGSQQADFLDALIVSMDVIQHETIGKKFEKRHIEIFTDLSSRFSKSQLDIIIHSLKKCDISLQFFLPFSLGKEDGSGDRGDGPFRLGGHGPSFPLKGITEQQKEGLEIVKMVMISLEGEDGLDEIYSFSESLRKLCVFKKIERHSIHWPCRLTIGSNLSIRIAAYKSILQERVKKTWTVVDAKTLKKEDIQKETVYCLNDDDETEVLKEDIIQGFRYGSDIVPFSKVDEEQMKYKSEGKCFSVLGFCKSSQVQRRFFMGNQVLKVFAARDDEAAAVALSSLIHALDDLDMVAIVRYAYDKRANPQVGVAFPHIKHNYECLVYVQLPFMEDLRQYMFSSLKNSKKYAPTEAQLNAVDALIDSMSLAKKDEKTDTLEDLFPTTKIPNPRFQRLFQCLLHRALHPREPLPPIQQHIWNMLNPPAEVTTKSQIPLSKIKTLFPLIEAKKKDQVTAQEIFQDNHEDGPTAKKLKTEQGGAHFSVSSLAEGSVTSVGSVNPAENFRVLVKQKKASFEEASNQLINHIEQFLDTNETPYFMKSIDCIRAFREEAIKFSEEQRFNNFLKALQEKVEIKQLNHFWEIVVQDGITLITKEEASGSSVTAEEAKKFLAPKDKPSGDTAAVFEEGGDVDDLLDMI

What was measured:
[1] = target: T1, Forkhead box protein L2 (FOXL2), endogenous (human (endogenous in KGN)) (UniProt P58012); assay: co-IP; endogenous proteins in other types of cancer cells, with and without UV (Supplementary Fig. 7a-c)
T1 sequence: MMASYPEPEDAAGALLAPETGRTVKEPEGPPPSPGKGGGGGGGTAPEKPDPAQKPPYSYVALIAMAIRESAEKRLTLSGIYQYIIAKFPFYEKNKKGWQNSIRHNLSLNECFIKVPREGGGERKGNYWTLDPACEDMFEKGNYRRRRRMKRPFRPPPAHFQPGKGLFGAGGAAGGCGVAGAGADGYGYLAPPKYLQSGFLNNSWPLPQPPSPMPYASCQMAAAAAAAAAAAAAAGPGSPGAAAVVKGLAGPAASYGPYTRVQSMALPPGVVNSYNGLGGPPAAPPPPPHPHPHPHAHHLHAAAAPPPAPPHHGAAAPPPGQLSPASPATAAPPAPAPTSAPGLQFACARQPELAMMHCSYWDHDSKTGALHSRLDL

[2] = target: T2, Myc-tagged FOXL2 K124Q (human) (UniProt P58012); assay: co-IP; KGN cells transfected with Myc-FOXL2 WT or lysine mutants, with and without UV; IP with anti-Myc, immunoblot, bands quantified
T2 sequence: T1 sequence with K124Q

[3] = target: T3, Myc-tagged FOXL2 K124R (human) (UniProt P58012); assay: as above
T3 sequence: T1 sequence with K124R

[4] = target: T4, Myc-tagged full-length wild-type (WT) FOXL2 (human) (UniProt P58012); assay: as above
T4 sequence: T1 sequence

[5] = target: T5, Myc-tagged FOXL2 F167X (human) (UniProt P58012); assay: co-IP; 293T cells transfected with Myc-tagged FOXL2 forms (with Flag-XRCC5 or XRCC6 fragments where indicated); IP with anti-Myc, immunoblot
T5 sequence: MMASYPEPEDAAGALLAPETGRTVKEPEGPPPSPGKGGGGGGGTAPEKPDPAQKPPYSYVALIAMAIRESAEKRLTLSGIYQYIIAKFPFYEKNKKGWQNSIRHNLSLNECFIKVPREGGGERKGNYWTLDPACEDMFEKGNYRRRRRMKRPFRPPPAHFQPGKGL

[6] = target: T6, Myc-tagged FOXL2 I80T (human) (UniProt P58012); assay: as above
T6 sequence: T1 sequence with I80T

[7] = target: T7, Myc-tagged FOXL2 N109K (human) (UniProt P58012); assay: as above
T7 sequence: T1 sequence with N109K

[8] = target: T8, Myc-tagged FOXL2 W204X (human) (UniProt P58012); assay: as above
T8 sequence: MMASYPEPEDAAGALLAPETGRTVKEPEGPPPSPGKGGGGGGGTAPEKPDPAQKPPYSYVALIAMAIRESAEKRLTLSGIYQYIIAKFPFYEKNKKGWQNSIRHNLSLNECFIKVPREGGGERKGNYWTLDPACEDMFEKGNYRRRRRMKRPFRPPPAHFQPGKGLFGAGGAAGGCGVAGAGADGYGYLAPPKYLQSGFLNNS

binding [1] | binding [2] | binding [3] | binding [4] | binding [5] | binding [6] | binding [7] | binding [8] | Substance
binds | binds | binds weakly | binds | binds | no binding | binds | binds | XRCC6 (Ku70), endogenous (from UniProt P12956 1-609)
binds | binds | binds weakly | binds | binds | no binding | binds | binds | XRCC5 (Ku80), endogenous (from UniProt P13010 1-732)
